Reference: the supplement of paper PMC9446081
The campaign covered roughly 39,000 compounds. About 220 (0.56%) showed activity. The list shows a part of the results.

Tested on: Escherichia coli K-12 BW25113
Experiment: relative growth (OD600 normalised to plate interquartile mean) (fraction); higher = less growth inhibition, active = 0.2 or less
Settings: 50 µM; LB; incubation time: overnight (16-24 h)
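Also: static incubation at 37 °C against the wild-type strain, values averaged over two biological replicates.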

| Structure (SMILES) | relative growth |
| --- | --- |
| C[C@@H]1CN([C@@H](C)CO)S(=O)(=O)c2ccc(C#Cc3ccccc3)cc2O[C@H]1CN(C)C(=O)Cc1ccccn1 | inactive: 1.01 |
| COc1ccc(NC(=O)Nc2ccc3c(c2)C(=O)N([C@@H](C)CO)C[C@@H](C)[C@H](CN(C)S(=O)(=O)c2ccc(F)cc2)OCCCC[C@@H](C)O3)cc1 | inactive: 1.05 |
| N[C@@H]1CC[C@@H](CCn2cc(-c3ccccn3)nn2)O[C@H]1CO | inactive: 0.843 |
| COc1ccc2c3c([nH]c2c1)[C@H](CO)N(C[C@]13CCN(CC1)Cc1cc(ccc1F)F)C(=O)Nc1ccc(cc1)F | inactive: 0.98 |
| CO[C@H]1CN(C)C(=O)c2cc(NS(C)(=O)=O)ccc2OC[C@H](C)N(C(=O)CN(C)C)C[C@H]1C | inactive: 0.985 |
| C[C@H](CO)N1C[C@H](C)[C@@H](CN(C)S(C)(=O)=O)Oc2ccc(NS(=O)(=O)c3ccccc3)cc2CC1=O | inactive: 0.997 |
| C[C@H]1CN([C@@H](C)CO)C(=O)Cc2cc(NC(=O)C3CC3)ccc2O[C@@H]1CN(C)Cc1ccc(C(=O)O)cc1 | inactive: 0.981 |
| C[C@H](CO)N1C[C@H](C)[C@H](CN(C)Cc2ccc(C(=O)O)cc2)Oc2ccc(NC(=O)CCN3CCOCC3)cc2CC1=O | inactive: 1.01 |
| O=C(Cc1ccc(-c2ccccc2)cc1)N[C@@H]1CCOC1.O=C(Cc1ccc(-c2ccccc2)cc1)N[C@H]1CCOC1 | inactive: 0.979 |
| C[C@@H]1CCCCO[C@@H](CN(C)Cc2ccncc2)[C@H](C)CN([C@H](C)CO)C(=O)c2cc(NC(=O)NC3CCCCC3)ccc2O1 | inactive: 1.02 |
| CCC[C@@H](O)C#Cc1cnc2c(c1)C(=O)N([C@H](C)CO)C[C@H](C)[C@H](CN(C)S(=O)(=O)c1cccc(OC)c1)O2 | inactive: 1.02 |
| COc1ccc(CN(C)C[C@@H]2Oc3ccc(NC(=O)CCCCCC(=O)Nc4ccccc4N)cc3CC(=O)N([C@H](C)CO)C[C@H]2C)cc1 | inactive: 0.978 |
| C[C@H](CO)N1C[C@H](C)[C@@H](CN(C)CC2CCCCC2)Oc2ccc(NC(=O)Cn3cnnn3)cc2C1=O | inactive: 1.03 |
| CN(CC(=O)NC1CCCC1)S(C)(=O)=O | inactive: 0.986 |
| COc1cccc(S(=O)(=O)Nc2ccc3c(c2)[C@H]2C[C@H](CC(=O)NCc4cccc(F)c4)O[C@@H](CO)[C@H]2O3)c1 | inactive: 1.03 |
| O=C(NCCN1CCOCC1)c1ccccn1 | inactive: 1.02 |
| C[C@H](CO)N1C[C@H](C)[C@@H](CN(C)Cc2ccc(-c3ccccc3)cc2)Oc2c(NS(=O)(=O)c3ccccc3)cccc2C1=O | inactive: 0.978 |
| CC(C)NC(=O)N(C)C[C@H]1Oc2ccc(NC(=O)CCC(F)(F)F)cc2CC(=O)N([C@@H](C)CO)C[C@H]1C | inactive: 0.984 |
| C[C@@H]1CN([C@H](C)CO)C(=O)c2cc(NC(=O)CCCN(C)C)ccc2O[C@@H]1CN(C)Cc1ccc(C(=O)O)cc1 | inactive: 1.01 |
| CO[C@@H]1CN(C)C(=O)c2ccc(NC(=O)CC(F)(F)F)cc2OC[C@@H](C)N(C(=O)C2CCOCC2)C[C@@H]1C | inactive: 0.992 |

| Structure (SMILES) | relative growth |
| --- | --- |
| C[C@@H]1CN([C@H](C)CO)C(=O)Cc2cc(NC(=O)c3ccncc3)ccc2O[C@@H]1CN(C)S(=O)(=O)c1ccc(Cl)cc1 | inactive: 0.989 |
| COCC(=O)N(C)C[C@@H]1Oc2cc(C#CCN(C)C)ccc2S(=O)(=O)N([C@H](C)CO)C[C@@H]1C | inactive: 0.938 |
| C[C@@H]1CN([C@@H](C)CO)C(=O)Cc2cc(NC(=O)Cc3cn(C)c4ccccc34)ccc2O[C@@H]1CN(C)Cc1ccc(-c2ccccc2)cc1 | inactive: 0.992 |
| Cc1noc(C)c1NC(=O)N(C)C[C@@H]1OCCCC[C@H](C)Oc2ccc(NC(=O)CCC(F)(F)F)cc2C(=O)N([C@@H](C)CO)C[C@@H]1C | inactive: 0.991 |
| Cc1ccc(S(=O)(=O)N2C[C@@H](O)COC[C@H]3O[C@H](CC(=O)NCc4ccccc4C(F)(F)F)CC[C@@H]32)cc1 | inactive: 0.933 |
| CCC(=O)OCN1C(=O)C=CC1=O | inactive: 0.998 |
| Cc1ccc(S(=O)(=O)Nc2ccc3c(c2)C(=O)N([C@H](C)CO)C[C@@H](C)[C@@H](CN(C)S(=O)(=O)c2cn(C)cn2)O3)cc1 | inactive: 0.956 |
| C[C@H]1CCCCO[C@@H](CN(C)C(=O)Nc2ccc3c(c2)OCO3)[C@@H](C)CN([C@@H](C)CO)C(=O)c2cc(NC(=O)Nc3ccc(C(F)(F)F)cc3)ccc2O1 | inactive: 1.05 |
| O=C(/C=C/c1ccc(O)c(O)c1)O[C@@H]1C[C@](O)(C(=O)O)C[C@@H](OC(=O)/C=C/c2ccc(O)c(O)c2)[C@H]1OC(=O)/C=C/c1ccc(O)c(O)c1 | inactive: 0.961 |
| C[C@@H]1CN([C@@H](C)CO)C(=O)Cc2cc(NC(=O)CCN3CCOCC3)ccc2O[C@H]1CN(C)S(=O)(=O)c1ccc(Cl)cc1 | inactive: 1 |
| C[C@H]1CCCCO[C@H](CN(C)C(=O)Nc2ccccc2)[C@@H](C)CN([C@@H](C)CO)C(=O)c2cc(NS(=O)(=O)c3cccs3)ccc2O1 | inactive: 1.02 |
| O=C1O[C@H](c2ccccc2)[C@H](c2ccccc2)N2[C@H]1[C@@H](C(=O)N1CCCCCCC1)[C@]1(C(=O)Nc3ccc(C#CC4(O)CCCCCC4)cc31)[C@H]2c1ccc(OCCO)cc1 | inactive: 1.04 |
| C[C@@H]1CN([C@H](C)CO)C(=O)c2cccc(NC(=O)Nc3ccc(C(F)(F)F)cc3)c2O[C@H]1CN(C)C(=O)NC1CCCCC1 | inactive: 0.661 |
| C[C@H](CO)N1C[C@H](C)[C@@H](CN(C)C(=O)NC2CCCCC2)OCCCC[C@H](C)Oc2ccc(NS(=O)(=O)c3ccc(F)cc3)cc2C1=O | inactive: 0.992 |
| C[C@@H]1CN([C@H](C)CO)C(=O)c2cc(NS(=O)(=O)c3ccc(F)cc3)ccc2O[C@H]1CN(C)S(=O)(=O)c1ccccc1 | inactive: 1.01 |
| c1cnc2ccc3ncccc3c2c1 | inactive: 0.966 |
| Cc1noc(C)c1S(=O)(=O)Nc1cccc2c1O[C@H](CN(C)Cc1ccc3c(c1)OCO3)[C@H](C)CN([C@@H](C)CO)C2=O | inactive: 1.01 |
| O=C1c2ccccc2C(=O)c2c1ccc(O)c2O | inactive: 1.14 |
| C[C@@H]1CN([C@H](C)CO)S(=O)(=O)c2ccc(C#CC3CC3)cc2O[C@@H]1CN(C)C(=O)Cc1ccncc1 | inactive: 1.02 |
| CN(/N=C/c1ccncc1)C1=NCCN1 | inactive: 0.975 |

| Structure (SMILES) | relative growth |
| --- | --- |
| Cc1noc(C)c1S(=O)(=O)Nc1cccc2c1O[C@@H](CN(C)Cc1ccc(Oc3ccccc3)cc1)[C@@H](C)CN([C@H](C)CO)C2=O | inactive: 1 |
| O=c1c2cc(O)c(O)cc2oc2cc(O)c(C3OC(CO)C(O)C(O)C3O)c(O)c12 (stereo not given) | inactive: 0.996 |
| O=C(C[C@H]1C=C[C@@H](NS(=O)(=O)c2ccc(F)cc2)[C@@H](CO)O1)NCCN1CCCCC1 | inactive: 1.01 |
| COc1ccc(NC(=O)Nc2ccc3c(c2)C(=O)N([C@H](C)CO)C[C@@H](C)[C@H](CN(C)Cc2ccc(Cl)c(Cl)c2)OCCCC[C@H](C)O3)cc1 | inactive: 0.997 |
| C[C@H](CO)N1C[C@H](C)[C@@H](CN(C)Cc2ccc(C(=O)Nc3ccccc3N)cc2)Oc2ccc(NS(C)(=O)=O)cc2CC1=O | inactive: 1 |
| C[C@@H]1CN([C@H](C)CO)C(=O)c2cccc(NC(=O)NC3CCCCC3)c2O[C@@H]1CN(C)Cc1ccc(Cl)c(Cl)c1 | inactive: 0.975 |
| CC(=O)N(C)C[C@H]1Oc2cc(C#CCN(C)C)ccc2S(=O)(=O)N([C@H](C)CO)C[C@@H]1C | inactive: 0.96 |
| C[C@H]1CN([C@@H](C)CO)C(=O)c2cc(NC(=O)C3CCCCC3)ccc2O[C@H]1CN(C)C(=O)Nc1cccc2ccccc12 | inactive: 0.968 |
| Cc1ccc(S(=O)(=O)Nc2ccc3c(c2)CC(=O)N([C@@H](C)CO)C[C@@H](C)[C@H](CN(C)Cc2ccc(Oc4ccccc4)cc2)O3)cc1 | inactive: 0.988 |
| COc1ccc(NC(=O)N(C)C[C@H]2OCc3cnnn3CCCC(=O)N([C@H](C)CO)C[C@@H]2C)c(OC)c1 | inactive: 1.01 |
| CN1CCN(C(=O)C[C@H]2CC[C@@H]3[C@H](COC[C@@H](O)CN3CC3CCCC3)O2)CC1 | inactive: 1.01 |
| N#CCCn1c(CC(N)=O)nc2ccccc21 | inactive: 1.05 |
| C[C@H]1CN([C@@H](C)CO)C(=O)c2cc(NC(=O)Cn3cnnn3)ccc2O[C@@H]1CN(C)Cc1ccc2c(c1)OCO2 | inactive: 0.987 |
| C[C@H]1CN([C@@H](C)CO)C(=O)c2cc(NC(=O)CCC(F)(F)F)ccc2O[C@@H]1CN(C)C(=O)Nc1ccc(C(F)(F)F)cc1 | inactive: 0.958 |
| COc1ccc(S(=O)(=O)N(C)C[C@@H]2OCCCC[C@@H](C)Oc3ccc(NC(=O)NC4CCCCC4)cc3C(=O)N([C@@H](C)CO)C[C@@H]2C)cc1 | inactive: 1.03 |
| CN1CCN(C(=O)C[C@@H]2C=C[C@H](NC(=O)Nc3ccccc3F)[C@H](CO)O2)CC1 | inactive: 1.02 |
| C[N+](C)(C)CCCCCCNC(=O)[C@H]1C[C@H]2C(=O)N[C@@H](CCCC[N+](C)(C)C)C(=O)N2[C@H]1c1ccc(O)cc1 | inactive: 1.01 |
| CNC(=O)[C@H]1O[C@H](n2cnc3c(NCc4cccc(I)c4)nc(Cl)nc32)[C@@H](O)[C@@H]1O | inactive: 1.03 |
| Cn1cc(N2C[C@]3(COCCN(C(=O)C4(C#N)CC4)C3)OCC2=O)cn1 | inactive: 1.01 |
| C[C@H]1CN([C@@H](C)CO)S(=O)(=O)c2ccc(Br)cc2O[C@@H]1CN(C)C(=O)Cc1cccnc1 | inactive: 0.988 |
